Structures are written as SMILES. Some of the results follow.

The test system of one assay is HepG2. Kind of assay: cytotoxicity call (relative viability < 0.9). Particulars: 10 µM.
For `C[C@@H]1COCCN1`, the cytotoxicity call is “inactive”.
Turning to `C[C@H](CO)N1C[C@H](C)[C@H](CN(C)C(=O)Nc2ccc(C(F)(F)F)cc2)Oc2ccc(NC(=O)Cc3cn(C)c4ccccc34)cc2C1=O`, the cytotoxicity call is “inactive”.
Still for that read-out and setting: as for `C[C@H](CO)N1C[C@H](C)[C@H](CN(C)Cc2ccc(Cl)c(Cl)c2)Oc2ccc(NC(=O)Cc3ccccc3)cc2C1=O`, the entry is “inactive”.
`CC(C)NC(=O)Nc1ccc2c(c1)C(=O)N([C@@H](C)CO)C[C@H](C)[C@@H](CN(C)S(=O)(=O)c1ccc(Cl)cc1)O2`: the cytotoxicity call was “inactive”.
On to `O=C(N[C@@H]1CC=CC[C@H](CC(=O)N(CCO)Cc2ccccc2)C(=O)N[C@@H](Cc2ccccc2)COC1=O)OCC1c2ccccc2-c2ccccc21`, for which the cytotoxicity call is “inactive”.
The same measure, in the same setting: the result for `Cc1noc(C)c1S(=O)(=O)N(C)C[C@@H]1Oc2ccc(NC(=O)CCCN(C)C)cc2CC(=O)N([C@@H](C)CO)C[C@H]1C` reads “inactive”; that for `CC(C)NC(=O)Nc1ccc2c(c1)C(=O)N([C@H](C)CO)C[C@H](C)[C@@H](CN(C)Cc1ccc(C(=O)O)cc1)O2`, “inactive”.
Same read-out and setting: the result for `C[C@@H]1CCCCO[C@@H](CN(C)C(=O)NC2CCCCC2)[C@@H](C)CN([C@@H](C)CO)C(=O)c2cc(NC(=O)NC3CCCCC3)ccc2O1` reads “inactive”; that for `Cc1ccc(S(=O)(=O)N(C)C[C@H]2Oc3ncc(Br)cc3C(=O)N([C@@H](C)CO)C[C@H]2C)cc1`, “inactive”; that for `C[C@H]1CN([C@@H](C)CO)S(=O)(=O)c2ccc(C#CC3CC3)cc2O[C@H]1CN(C)C(=O)Cc1ccncc1`, “inactive”.
Still for that read-out and setting: as for `C[C@H](CO)N1C[C@H](C)[C@H](CN(C)C(=O)NC2CCCCC2)OCc2ccccc2-c2c(n(C)c3ccccc23)C1=O`, the entry is “active”; as for `C/C=C/c1ccc2c(c1)O[C@H](CN(C)S(=O)(=O)c1ccccc1OC)[C@H](C)CN([C@H](C)CO)S2(=O)=O`, “inactive”.
Consider `O=C1NCCc2cncn21`, for which the cytotoxicity call was “inactive”.
Turning to `C[C@@H]1CCCCO[C@H](CN(C)Cc2ccc3c(c2)OCO3)[C@H](C)CN([C@@H](C)CO)C(=O)c2cc(NC(=O)Nc3ccc(C(F)(F)F)cc3)ccc2O1`, the cytotoxicity call is “active”.
On the same count and under the same terms, as for `NC(=O)CCN1C(=O)c2ccccc2C1=O`, the entry is “inactive”.
Same read-out and setting: the result for `C[C@H]1CN([C@@H](C)CO)C(=O)Cc2cc(NS(=O)(=O)c3ccccc3)ccc2O[C@H]1CN(C)Cc1ccncc1` reads “inactive”; that for `CC(C)NC(=O)N[C@@H]1CC[C@@H](CCN)O[C@H]1CO`, “inactive”.
On the same count and under the same terms, as for `C[C@H]1CN([C@@H](C)CO)S(=O)(=O)c2ccc(Br)cc2O[C@@H]1CN(C)C(=O)C1CCOCC1`, the entry is “inactive”; as for `C[C@@H]1CCCCO[C@H](CN(C)C(=O)Nc2ccc(C(F)(F)F)cc2)[C@H](C)CN([C@@H](C)CO)C(=O)c2cc(NC(=O)Nc3ccc(C(F)(F)F)cc3)ccc2O1`, “inactive”.
Regarding `CC(C)CC#Cc1ccc2c(c1)O[C@H](CN(C)S(=O)(=O)c1cccc(F)c1)[C@H](C)CN([C@H](C)CO)S2(=O)=O`, the cytotoxicity call was “inactive”.
On the same count and under the same terms, the result for `C[C@H](NC(=O)[C@@H]1N[C@@H]2c3ccc(-c4ccc(C(=O)N(C)C)cc4)c(=O)n3C[C@@H]2[C@H]1CO)c1ccccc1` reads “inactive”; that for `C[C@H](CO)N1C[C@H](C)[C@@H](CN(C)S(=O)(=O)c2cn(C)cn2)Oc2c(NS(=O)(=O)c3cn(C)cn3)cccc2C1=O`, “inactive”.
The same measure, in the same setting: the result for `Nc1nnc(CC(=O)O)[nH]1` reads “inactive”.

The next assay relates to S. aureus RN4220. Briefly: growth inhibition call (relative growth <= 0.2). The note with it: 50 µM.
Take `O=C(C[C@@H]1CC[C@H]2[C@@H](COC[C@H](O)CN2S(=O)(=O)c2ccc(Cl)cc2)O1)N[C@H]1CCN(Cc2ccccc2)C1`: the growth inhibition call was “inactive”.
Still for that read-out and setting: the result for `C[C@H](CO)N1C[C@H](C)[C@H](CN(C)Cc2ccncc2)Oc2ccc(NC(=O)c3ccncc3)cc2CC1=O` reads “inactive”; that for `CN1CCN(C(=O)C[C@H]2CC[C@H]3[C@@H](COc4ccc(NC(=O)C5CCCCC5)cc4C(=O)N3C)O2)CC1`, “inactive”.
On the same count and under the same terms, the result for `C[C@@H]1CN([C@@H](C)CO)C(=O)c2cc(NS(=O)(=O)c3cn(C)cn3)ccc2O[C@@H]1CN(C)S(=O)(=O)c1ccccc1` reads “inactive”; that for `C[C@@H]1CN([C@H](C)CO)C(=O)c2cc(NC(=O)C3CCCCC3)ccc2O[C@@H](C)CCCCO[C@@H]1CN(C)S(=O)(=O)c1ccc(Cl)cc1`, “inactive”.
Regarding `CO[C@H]1CN(C)C(=O)c2ccc(NS(C)(=O)=O)cc2OC[C@@H](C)N(C(=O)C2CCOCC2)C[C@H]1C`, the growth inhibition call was “inactive”.
On the same count and under the same terms, the result for `O=C(C[C@@H]1C[C@@H]2c3cc(NC(=O)c4ccc5c(c4)OCO5)ccc3O[C@@H]2[C@@H](CO)O1)NCc1ccccn1` reads “inactive”.
As to `CCNC(=O)[C@@H]1CCCN1C(=O)[C@H](CCCNC(=N)N)NC(=O)[C@H](CC(C)C)NC(=O)[C@@H](COC(C)(C)C)NC(=O)[C@H](Cc1ccc(O)cc1)NC(=O)[C@H](CO)NC(=O)[C@H](Cc1c[nH]c2ccccc12)NC(=O)[C@H](Cc1cnc[nH]1)NC(=O)[C@H]1CCC(=O)N1`, the growth inhibition call is “inactive”.
As for `CN1C(C(=O)Nc2ccccn2)=C(O)c2ccccc2S1(=O)=O`, the growth inhibition call is “inactive”.
Still for that read-out and setting: as for `Cc1ccc(S(=O)(=O)N(C)C[C@H]2Oc3ccc(NC(=O)Nc4cccc5ccccc45)cc3CC(=O)N([C@@H](C)CO)C[C@H]2C)cc1`, the entry is “inactive”.
Regarding `O=C(C[C@H]1C[C@H]2c3cc(NC(=O)C4CCOCC4)ccc3O[C@H]2[C@H](CO)O1)NCc1cc(F)ccc1F`, the growth inhibition call is “inactive”.
On the same count and under the same terms, the result for `COc1ccc(S(=O)(=O)Nc2cccc3c2O[C@@H](CN(C)C(=O)Nc2c(C)noc2C)[C@H](C)CN([C@H](C)CO)C3=O)cc1` reads “inactive”; that for `C[C@H](CO)N1C[C@H](C)[C@@H](CN(C)C(=O)Nc2ccc3c(c2)OCO3)OCCCC[C@H](C)Oc2ccc(NS(=O)(=O)c3ccc(F)cc3)cc2C1=O`, “inactive”.
On the same count and under the same terms, as for `CO[C@H](CN(C)S(=O)(=O)c1ccc(C)cc1)[C@@H](C)CN([C@H](C)CO)S(=O)(=O)c1cccc(Cl)c1`, the entry is “inactive”; as for `CCc1nc2ccc(C(=O)Nc3cc(-c4ccccc4)ccc3OC)cn2c1N(C)Cc1ccc(OC)cc1`, “inactive”.
Same read-out and setting: as for `C[C@@H]1CN([C@@H](C)CO)C(=O)Cc2cc(NC(=O)NC3CCCCC3)ccc2O[C@@H]1CN(C)C(=O)Nc1ccc(C(F)(F)F)cc1`, the entry is “inactive”.
Take `C[C@H]1CN([C@@H](C)CO)C(=O)c2cccc(NC(=O)Nc3ccc(C(F)(F)F)cc3)c2O[C@@H]1CN(C)Cc1ccc2c(c1)OCO2`: the growth inhibition call is “inactive”.
On the same count and under the same terms, as for `C[C@@H]1COCCN1`, the entry is “inactive”; as for `C[C@H](CO)N1C[C@H](C)[C@H](CN(C)C(=O)Nc2ccc(C(F)(F)F)cc2)Oc2ccc(NC(=O)Cc3cn(C)c4ccccc34)cc2C1=O`, “inactive”; as for `C[C@H](CO)N1C[C@H](C)[C@H](CN(C)Cc2ccc(Cl)c(Cl)c2)Oc2ccc(NC(=O)Cc3ccccc3)cc2C1=O`, “inactive”.
The same measure, in the same setting: as for `CC(C)NC(=O)Nc1ccc2c(c1)C(=O)N([C@@H](C)CO)C[C@H](C)[C@@H](CN(C)S(=O)(=O)c1ccc(Cl)cc1)O2`, the entry is “inactive”; as for `O=C(N[C@@H]1CC=CC[C@H](CC(=O)N(CCO)Cc2ccccc2)C(=O)N[C@@H](Cc2ccccc2)COC1=O)OCC1c2ccccc2-c2ccccc21`, “inactive”; as for `Cc1noc(C)c1S(=O)(=O)N(C)C[C@@H]1Oc2ccc(NC(=O)CCCN(C)C)cc2CC(=O)N([C@@H](C)CO)C[C@H]1C`, “inactive”.
As to `CC(C)NC(=O)Nc1ccc2c(c1)C(=O)N([C@H](C)CO)C[C@H](C)[C@@H](CN(C)Cc1ccc(C(=O)O)cc1)O2`, the growth inhibition call was “inactive”.
Still for that read-out and setting: as for `C[C@@H]1CCCCO[C@@H](CN(C)C(=O)NC2CCCCC2)[C@@H](C)CN([C@@H](C)CO)C(=O)c2cc(NC(=O)NC3CCCCC3)ccc2O1`, the entry is “inactive”; as for `Cc1ccc(S(=O)(=O)N(C)C[C@H]2Oc3ncc(Br)cc3C(=O)N([C@@H](C)CO)C[C@H]2C)cc1`, “inactive”.
On the same count and under the same terms, as for `C[C@H]1CN([C@@H](C)CO)S(=O)(=O)c2ccc(C#CC3CC3)cc2O[C@H]1CN(C)C(=O)Cc1ccncc1`, the entry is “inactive”; as for `C[C@H](CO)N1C[C@H](C)[C@H](CN(C)C(=O)NC2CCCCC2)OCc2ccccc2-c2c(n(C)c3ccccc23)C1=O`, “inactive”.
Regarding `C/C=C/c1ccc2c(c1)O[C@H](CN(C)S(=O)(=O)c1ccccc1OC)[C@H](C)CN([C@H](C)CO)S2(=O)=O`, the growth inhibition call was “inactive”.
`O=C1NCCc2cncn21`: the growth inhibition call is “inactive”.
Still for that read-out and setting: as for `C[C@@H]1CCCCO[C@H](CN(C)Cc2ccc3c(c2)OCO3)[C@H](C)CN([C@@H](C)CO)C(=O)c2cc(NC(=O)Nc3ccc(C(F)(F)F)cc3)ccc2O1`, the entry is “inactive”.
Regarding `NC(=O)CCN1C(=O)c2ccccc2C1=O`, the growth inhibition call is “inactive”.
The same measure, in the same setting: as for `C[C@H]1CN([C@@H](C)CO)C(=O)Cc2cc(NS(=O)(=O)c3ccccc3)ccc2O[C@H]1CN(C)Cc1ccncc1`, the entry is “inactive”.
`CC(C)NC(=O)N[C@@H]1CC[C@@H](CCN)O[C@H]1CO`: the growth inhibition call was “inactive”.
As for `C[C@H]1CN([C@@H](C)CO)S(=O)(=O)c2ccc(Br)cc2O[C@@H]1CN(C)C(=O)C1CCOCC1`, the growth inhibition call is “inactive”.
On to `C[C@@H]1CCCCO[C@H](CN(C)C(=O)Nc2ccc(C(F)(F)F)cc2)[C@H](C)CN([C@@H](C)CO)C(=O)c2cc(NC(=O)Nc3ccc(C(F)(F)F)cc3)ccc2O1`, for which the growth inhibition call is “inactive”.
`CC(C)CC#Cc1ccc2c(c1)O[C@H](CN(C)S(=O)(=O)c1cccc(F)c1)[C@H](C)CN([C@H](C)CO)S2(=O)=O`: the growth inhibition call was “inactive”.
`C[C@H](NC(=O)[C@@H]1N[C@@H]2c3ccc(-c4ccc(C(=O)N(C)C)cc4)c(=O)n3C[C@@H]2[C@H]1CO)c1ccccc1`: the growth inhibition call is “inactive”.
On the same count and under the same terms, as for `C[C@H](CO)N1C[C@H](C)[C@@H](CN(C)S(=O)(=O)c2cn(C)cn2)Oc2c(NS(=O)(=O)c3cn(C)cn3)cccc2C1=O`, the entry is “inactive”; as for `Nc1nnc(CC(=O)O)[nH]1`, “inactive”.

Values taken from the antibiotic and cytotoxicity screens of Wong et al. (2023).
